From PubChem BioAssay AID1477 (National Center for Advancing Translational Sciences (NCATS), 2009)
The campaign covered roughly 230,000 compounds. Fewer than 10 were called active. Inconclusive means that the source gave no clear call. Such entries were picked first, then a sample of the others. Calls follow the shape of the dose curve; as a rule, active = well fitted curve in the direction sought with a large enough effect; inconclusive = small, poorly fitted or top-dose-only effect, or effect the other way, or another doubt; inactive = no such curve, though single readings can be large or run the other way. No potency is given beside an inconclusive call; the fits are too rough.

What follows are compounds tested against Runt-related transcription factor 1 (Homo sapiens) + Core-binding factor subunit beta (Homo sapiens) (UniProt Q01196+Q13951) (assay: qHTS Assay for Compounds Blocking the Interaction Between CBF-beta and RUNX1 for the Treatment of Acute Myeloid Leukemia). Details: AlphaScreen CBFb-His/RUNX1-biotin binding, biochemical; series mostly up to 59.8 µM.
Sequence of UniProt Q01196 (Q01196 whole entry, looked up): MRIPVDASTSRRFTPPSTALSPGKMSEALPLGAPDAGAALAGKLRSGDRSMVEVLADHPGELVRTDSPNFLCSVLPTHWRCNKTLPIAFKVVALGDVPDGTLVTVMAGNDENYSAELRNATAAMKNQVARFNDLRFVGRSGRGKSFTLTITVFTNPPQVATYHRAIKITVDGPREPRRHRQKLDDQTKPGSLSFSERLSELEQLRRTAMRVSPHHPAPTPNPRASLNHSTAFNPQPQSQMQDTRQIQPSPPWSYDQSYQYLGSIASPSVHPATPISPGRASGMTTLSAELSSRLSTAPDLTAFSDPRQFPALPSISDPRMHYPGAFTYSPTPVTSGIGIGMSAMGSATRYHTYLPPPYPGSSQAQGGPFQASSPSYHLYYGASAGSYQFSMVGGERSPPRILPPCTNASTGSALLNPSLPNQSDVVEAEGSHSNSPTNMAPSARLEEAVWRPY
Sequence of UniProt Q01196 (Q13951 whole entry, looked up): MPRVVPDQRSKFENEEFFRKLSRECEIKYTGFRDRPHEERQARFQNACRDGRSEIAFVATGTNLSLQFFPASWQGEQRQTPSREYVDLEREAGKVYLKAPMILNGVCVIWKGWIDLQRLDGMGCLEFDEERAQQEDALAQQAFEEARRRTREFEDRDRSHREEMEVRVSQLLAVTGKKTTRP
Summary of the method: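 CBFb-His/RUNX1-biotin, 30 nM each, preincubated 20 min RT; compound 15 min RT; Ni + streptavidin beads 50 ng each, 90 min RT; AlphaScreen read.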

Row | Compound | Potency
1 | O=c1[nH]cnc2nc(-c3ccccc3)c(-c3ccccc3)nc12 | inactive
2 | COC(=O)C1=C(C)N(CCc2ccc(OC)cc2)C(=O)C1 | inactive
3 | CC1S/C(=N\N=C\c2cccc([N+](=O)[O-])c2)N(C(C)(C)C)C1=O (centres undefined) | inactive
4 | Nc1ccc(Oc2ccc3nc(-c4ccccc4)c(-c4ccc([N+](=O)[O-])cc4)nc3c2)cc1 | inconclusive [inhibitor, partial curve]
5 | CC1(C)CC(NC(=O)C23CCC(C)(C2Br)C3(C)C)CC(C)(C)N1 (centres undefined) | inactive
6 | Cc1ccc(-n2c(Cc3cccn3C)nnc2SCC(=O)N2CCN(c3ccccc3)CC2)cc1 | inconclusive [inhibitor, single point]
7 | O=S(=O)(CCSc1ccc(C(F)(F)F)cn1)c1ccccc1 | inconclusive [activator, single point]
8 | CCN(CC(=O)NC(C)C)C(=O)C(CCSC)NC(=O)c1cccc(C)c1 (centres undefined) | inactive
9 | CCN(C(=O)CSc1nnc(-c2ccccc2)n1C)C1CCS(=O)(=O)C1 (centres undefined) | inconclusive [activator, full curve]
10 | O=[N+]([O-])c1cccc(-c2csc(Nc3ccccc3)n2)c1 | inconclusive [inhibitor, single point]
11 | O=C(NCCCN1CCCC1=O)C1CCCO1 (centres undefined) | inactive
12 | CCN(CCCNC(=O)CC(C(=O)N1CCc2ccccc21)n1ccnc1)c1cccc(C)c1 (centres undefined) | inconclusive [inhibitor, partial curve]
13 | Cc1ccc(C)n1-c1ccc(C(=O)O)cc1 | inconclusive [inhibitor, single point]
14 | O=[N+]([O-])c1nn(-c2ccc3c(c2)OCCO3)n(O)c1=NCCC1=CCCCC1 | inconclusive [inhibitor, single point]
15 | CC1=C(C(=O)OCC2CCCO2)C(c2ccc(C)cc2)C2=C(CCCC2=O)N1 (centres undefined) | inconclusive [activator, single point]
16 | CCc1ccc(NC(=O)C(C)Oc2nnc(-c3cccs3)c(-c3cccs3)n2)cc1 (centres undefined) | inconclusive [inhibitor, single point]
17 | Cc1ccc(C)n1-c1sc2c(c1C(=O)O)CCCC2 | inconclusive [inhibitor, single point]
18 | O=C(Cc1ccc(Cl)c(Cl)c1)N1CCCCC1CN1CCCC1 (centres undefined) | inconclusive [activator, single point]
19 | Cc1cccc(N(C(=O)Nc2ccccc2)C2=NCC(C)S2)c1 (centres undefined) | inactive
20 | O=C(CCNS(=O)(=O)c1cccc2nsnc12)NC1CCCc2ccccc21 (centres undefined) | inactive
21 | CCOC(=O)CNC(=O)CCCCCC(=O)NCC(=O)OCC | inconclusive [inhibitor, single point]
22 | Cc1cccc(NC(=O)CSc2nnc(NC(=O)c3ccc(S(=O)(=O)N4CCOCC4)cc3)s2)c1C | inconclusive [inhibitor, single point]
23 | Cc1cc(C)c(S(=O)(=O)N2CCCCCC2)cc1Br | inconclusive [activator, partial curve]

Row | Compound | Potency
24 | COc1ccc(/C=N/Nc2nnc(Cc3ccc(OC)c(OC)c3)c(=O)[nH]2)cc1OC | inconclusive [activator, single point]
25 | O=C(Nc1nc2ccccc2s1)c1ccc(N2CCCCC2)c([N+](=O)[O-])c1 | inconclusive [inhibitor, partial curve]
26 | Cc1noc(COc2ccccc2OCc2onc(C)c2Cl)c1Cl | inconclusive [activator, single point]
27 | CN1/C(=C\C=C2\N=C(c3ccc(F)cc3)OC2=O)C(C)(C)c2ccccc21 | inconclusive [inhibitor, single point]
28 | [O-][N+]1=c2ccc(Nc3ccccc3)cc2=NC12CCCCC2 | inconclusive [inhibitor, single point]
29 | CCCn1nnnc1SCC(=O)c1ccc2c(c1)OCCO2 | inactive
30 | O=c1[nH]c2ccccc2nc1/C=C/c1ccc(F)cc1 | inconclusive [inhibitor, single point]
31 | CC(=O)NC1Sc2ccccc2N=C1c1ccccc1 (centres undefined) | inactive
32 | COc1cccc(OCc2ccc(Cl)cc2)c1C#N | inconclusive [activator, partial curve]
33 | CCCCNc1ccc(C(=O)OCCN(C)C)cc1 | inconclusive [activator, partial curve, poor fit]
34 | C/C(=N\Nc1cccc2cccnc12)c1ccccc1O | inconclusive [inhibitor, single point]
35 | CN1C(=O)C(=Cc2coc3ccccc3c2=O)C(=O)N(C)C1=O | inconclusive [inhibitor, single point]
36 | COc1ccc(NC(=O)c2ccc(-c3ccc(-c4noc(C)n4)cc3C)cc2)cc1N1CCN(C)CC1 | inconclusive [inhibitor, single point]
37 | Cc1ccc(C(=O)Nc2ccccc2Sc2ccccc2)cc1 | inconclusive [activator, single point]
38 | O=C(O)/C=C/C(=O)Nc1cccc(C(F)(F)F)c1 | inactive
39 | CCCCC1=CC2=C(OC(C)=O)C(=O)C(C)(OC(=O)c3ccc(Cl)nc3)C(=O)C2=CO1 (centres undefined) | inactive
40 | N/C(Cc1ccc([N+](=O)[O-])cc1)=N\OC(=O)C(c1ccccc1)c1ccccc1 | inactive
41 | Cc1onc(-c2ccccc2Cl)c1C(=O)N1CCN(c2nc3ccccc3s2)CC1 | inactive
42 | CCOC(=O)c1c(C)nc2c(c(SC)nn2-c2ccccc2)c1N | inactive
43 | Cc1ccc(S(=O)(=O)CCNC(=O)Cc2ccccc2)cc1 | inactive
44 | COc1ccc(C(c2c(NC(=O)c3ccccc3)sc(C)c2C)N2CCN(CCO)CC2)cc1 (centres undefined) | inconclusive [inhibitor, single point]
45 | CC(C)(C)c1ccc(N2C[C@@H](COc3ccc(C(=O)O)cc3)CC2=O)cc1 | inconclusive [inhibitor, single point]
46 | NS(=O)(=O)c1cccc(NS(=O)(=O)c2ccc(/C=C/C(=O)OCC(=O)c3ccc(Br)cc3)cc2)c1 | inactive

Row | Compound | Potency
47 | CC(C)Oc1ccc(N2CC(C(=O)NC3=NCCS3)CC2=O)cc1 (centres undefined) | inconclusive [inhibitor, single point]
48 | O=C1c2ccccc2CC1(Cc1ccccc1)Cc1ccccc1 | inconclusive [activator, partial curve]
49 | COc1ccccc1-c1nc(COc2ccc(Cl)cc2Cl)no1 | inconclusive [activator, partial curve]
50 | COc1ccc(OCC(=O)Nc2nnc(-c3ccco3)s2)cc1 | inconclusive [inhibitor, single point]
51 | C=CCc1c(C)nc(N)[nH]c1=O | inconclusive [inhibitor, partial curve]
52 | O=[N+]([O-])c1ccc(SCc2ccco2)cc1N1CCOCC1 | inconclusive [inhibitor, single point]
53 | Oc1ccc(/C=N/Nc2ccnc3cc(Cl)ccc23)c(O)c1 | inconclusive [activator, partial curve]
54 | COc1cc2c(cc1OC)C1(C)N(CC2)C(C(C)=O)=NN1c1ccc(Cl)cc1 (centres undefined) | inconclusive [activator, single point]
55 | COc1cccc2c(SCC(=O)N/N=C/c3ccc(O)c(O)c3)cc(C)nc12 | inconclusive [inhibitor, single point]
56 | Cc1nc2ccc(NC(=O)CCS(=O)(=O)c3ccccc3)cc2s1 | inconclusive [activator, partial curve]
57 | Cc1ccc(/C=[N+](\[O-])c2ccc(N(C)C)cc2)c2nsnc12 | inconclusive [inhibitor, single point]
58 | O=C(NNc1nc2ccccc2s1)Nc1ccc(F)cc1 | inconclusive [inhibitor, single point]
59 | O=C1C2CC=C(Cl)CC2C(=O)N1CCCCCCN1C(=O)C2CC=C(Cl)CC2C1=O (centres undefined) | inconclusive [inhibitor, single point]
60 | Nc1c(C(=O)NCc2ccc(F)cc2)c2nc3ccccc3nc2n1CCCN1CCOCC1 | inconclusive [activator, partial curve]
61 | CC(=O)N1CCc2cc(S(=O)(=O)N3CCOCC3)ccc21 | inactive
62 | CNC(=O)c1sc2nc(-c3ccc(OC)cc3)cn2c1C | inconclusive [inhibitor, partial curve, poor fit]
63 | CC1(C)CC(NC(=O)C(=O)NCCc2ccccc2)CC(C)(C)N1 | inconclusive [activator, full curve]
64 | CCCN1C(=O)c2ccc(C(=O)Nc3nccs3)cc2C1=O | inconclusive [inhibitor, single point]
65 | O=c1c2c3c(sc2n2cnnc2n1Cc1ccccc1)CN(Cc1ccccc1)CC3 | inconclusive [inhibitor, single point]
66 | CNc1nc(-c2ccc3c(c2)CCN3C(=O)CC(C)(C)C)c(C)s1 | inactive
67 | CCOC(=O)Cc1csc(N/N=C\c2cccc(Br)c2)n1 | inactive
68 | CCN(CC(=O)Nc1ccc2c(c1)OCCO2)Cc1cc(=O)n2ccsc2n1 | inconclusive [activator, single point]
69 | CCOC(=O)CN(c1cc([N+](=O)[O-])ccc1OC)S(C)(=O)=O | inconclusive [activator, partial curve]
